Among all 39,000 compounds or so, about 220 (0.56%) showed activity. The list shows a part of the results.
system: Escherichia coli K-12 BW25113; experiment: relative growth (OD600 normalised to plate interquartile mean) (fraction); higher = less growth inhibition, active = 0.2 or less; conditions: 50 µM; LB; incubation time: overnight (16-24 h)
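Note: static incubation at 37 °C against the wild-type strain, values averaged over two biological replicates.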

Compound	relative growth
NCC[C@H]1CC[C@@H](NC(=O)Cc2ccncc2)[C@@H](CO)O1	inactive: 1
C[C@@H]1CN([C@H](C)CO)C(=O)c2cc(N(C)C)ccc2O[C@@H](C)CCCCO[C@@H]1CN(C)Cc1ccc(C(=O)Nc2ccccc2N)cc1	inactive: 0.995
C[C@H](CO)N1C[C@H](C)[C@@H](CN(C)C(=O)Nc2ccc3c(c2)OCO3)OCCCC[C@H](C)Oc2ccc(NC(=O)Nc3cccc4ccccc34)cc2C1=O	inactive: 1.03
C[C@H](O)[C@H](O)[C@@H](O)[C@@H](O)/C=N/NC(=O)c1ccc(C(=O)NO)cc1	inactive: 0.998
CN(C)S(=O)(=O)n1nnc2ccccc21	inactive: 0.995
O=C(c1ccccc1F)N1CCNCC1	inactive: 0.999
C[C@H]1CN([C@@H](C)CO)C(=O)Cc2cc(NS(C)(=O)=O)ccc2O[C@@H]1CN(C)S(=O)(=O)c1ccc(Cl)cc1	inactive: 0.993
O=C(C[C@@H]1C[C@@H]2c3cc(NC(=O)Nc4ccccc4)ccc3O[C@@H]2[C@H](CO)O1)NCCN1CCCCC1	inactive: 0.99
C[C@@H]1CCCCO[C@@H](CN(C)Cc2ccncc2)[C@@H](C)CN([C@H](C)CO)C(=O)c2cc(NC(=O)C3CCCCC3)ccc2O1	inactive: 0.982
C[C@H](CO)N1C[C@H](C)[C@H](CN(C)S(=O)(=O)c2ccc(Cl)cc2)Oc2ccc(NC(=O)CCN3CCOCC3)cc2C1=O	inactive: 1.01
C[C@H](CO)N1C[C@H](C)[C@H](CN(C)S(=O)(=O)c2ccc(Oc3ccccc3)cc2)OCc2cn(nn2)CCCC1=O	inactive: 0.995
C[C@H](CO)N1C[C@H](C)[C@@H](CN(C)S(=O)(=O)c2ccc(F)cc2)Oc2cc(C#Cc3ccc(F)cc3)ccc2S1(=O)=O	inactive: 1.03
C[C@H]1CN([C@@H](C)CO)C(=O)c2cccc(NC(=O)Nc3ccc(F)cc3)c2O[C@H]1CN(C)CC1CCCCC1	inactive: 1.01
Cc1noc(C)c1NC(=O)Nc1ccc2c(c1)C(=O)N([C@@H](C)CO)C[C@@H](C)[C@H](CN(C)Cc1ccccc1)OCCCC[C@@H](C)O2	inactive: 1.01
CN(C)CCOC(C)(c1ccccc1)c1ccccn1.O=C(O)CCC(=O)O (configuration not stated)	inactive: 0.787
C[C@@H]1CN([C@H](C)CO)C(=O)c2cccc(NC(=O)Nc3ccc(C(F)(F)F)cc3)c2O[C@H]1CN(C)C(=O)Nc1ccccc1	inactive: 0.878
Cc1ccc(S[C@]2(C(=O)NCc3ccccc3)CC(=O)N(Cc3cc(C(F)(F)F)cc(C(F)(F)F)c3)[C@@H]2c2ccc(CO)cc2I)cc1	inactive: 0.987
COc1cccc(C#Cc2ccc([C@H]3[C@@H](CO)N4C(=O)CN(S(=O)(=O)c5ccccc5C)C[C@H]34)cc2)c1	inactive: 1.02
CC(C)NC(=O)Nc1ccc2c(c1)C(=O)N([C@H](C)CO)C[C@H](C)[C@H](CN(C)Cc1ccc(Cl)c(Cl)c1)OCCCC[C@H](C)O2	inactive: 0.995
CC1CCC2(OC1)OC1CC3C4CCC5CC(O)CCC5(C)C4CCC3(C)C1C2C (configuration not stated)	inactive: 0.924
CCNC(=O)c1cc2c(c(-c3cccc(-c4cc5ccccc5o4)c3)n1)[C@@H](CCO)N(C(=O)NC(C)C)C2	inactive: 1.03

Compound	relative growth
COc1ccc(NC(=O)Nc2ccc3c(c2)C(=O)N([C@@H](C)CO)C[C@H](C)[C@H](CN(C)S(=O)(=O)c2ccc(F)cc2)OCCCC[C@@H](C)O3)cc1	inactive: 1.02
CC(C)NC(=O)N(C)C[C@@H]1Oc2c(NC(=O)C3CCOCC3)cccc2C(=O)N([C@H](C)CO)C[C@@H]1C	inactive: 0.991
C=CC[C@@H](CC(=O)NCCO)C(=O)NC[C@H](OC(=O)[C@@H](CC=C)CC(=O)OC(C)(C)C)c1ccccc1	inactive: 0.921
Cc1ccc(S(=O)(=O)N(C)C[C@@H]2Oc3ccc(NC(=O)Nc4cccc5ccccc45)cc3CC(=O)N([C@H](C)CO)C[C@@H]2C)cc1	inactive: 1.03
CC(=O)c1ccc2ccccc2c1O	inactive: 1
COc1ccc(NC(=O)N(C)C[C@@H]2Oc3ccc(NC(=O)CCCN(C)C)cc3C(=O)N([C@H](C)CO)C[C@H]2C)cc1	inactive: 0.89
C[C@H]1CN([C@@H](C)CO)C(=O)c2cc(NC(=O)Nc3cccc4ccccc34)ccc2O[C@@H]1CN(C)Cc1ccc(C(F)(F)F)cc1	inactive: 1.06
CC1=C(/C=C/C(C)=C/C=C/C(C)=C/C=C/C=C(C)/C=C/C=C(C)/C=C/[C@@]23O[C@]2(C)C[C@@H](O)CC3(C)C)C(C)(C)C[C@H](O)C1	inactive: 0.414
Cc1ccc(S(=O)(=O)N(C)C[C@@H]2Oc3ncc(-c4ccncc4)cc3C(=O)N([C@H](C)CO)C[C@H]2C)cc1	inactive: 1.01
Cc1ccc(S(=O)(=O)Nc2ccc3c(c2)CC(=O)N([C@H](C)CO)C[C@H](C)[C@H](CN(C)CC2CC2)O3)cc1	inactive: 1.01
C[C@@H]1CCCCO[C@@H](CN(C)C(=O)Cc2ccccc2)[C@H](C)CN([C@@H](C)CO)C(=O)c2cc(NC(=O)CCCCCC(=O)Nc3ccccc3N)ccc2O1	inactive: 0.994
C[C@H]1CN([C@@H](C)CO)C(=O)Cc2cc(NS(C)(=O)=O)ccc2O[C@H]1CN(C)S(=O)(=O)c1ccc(F)cc1	inactive: 1
COc1ccc(NC(=O)N(C)C[C@@H]2Oc3c(NC(=O)c4ccc(-c5nccs5)cc4)cccc3C(=O)N([C@@H](C)CO)C[C@H]2C)cc1	inactive: 0.999
Cc1cc2c(cc1N)n(C)c(=O)n2C	inactive: 0.986
COc1ccc(S(=O)(=O)Nc2cccc3c2O[C@H](CN(C)S(=O)(=O)c2ccccc2)[C@@H](C)CN([C@H](C)CO)C3=O)cc1	inactive: 0.913
C[C@@H]1CCCCO[C@H](CN(C)S(=O)(=O)c2cn(C)cn2)[C@@H](C)CN([C@@H](C)CO)C(=O)c2cc(NS(=O)(=O)c3ccccc3)ccc2O1	inactive: 0.998
COc1ccccc1NC(=O)N(C)C[C@H]1OCc2ccccc2-c2c(n(C)c3ccccc23)C(=O)N([C@H](C)CO)C[C@H]1C	inactive: 1.02
Cc1cc(C(=O)O)cc(S(N)(=O)=O)c1	inactive: 1.02
CCc1ccc(CNC2CC2)cc1	inactive: 0.973
C[C@@H]1CCCCO[C@H](CN(C)Cc2ccccc2)[C@@H](C)CN([C@H](C)CO)C(=O)c2cc(NS(=O)(=O)c3ccc(Cl)cc3)ccc2O1	inactive: 1
COc1ccc(NC(=O)Nc2cccc3c2O[C@@H](CN(C)C(=O)Nc2ccc(C(F)(F)F)cc2)[C@@H](C)CN([C@@H](C)CO)C3=O)cc1	inactive: 0.954

Compound	relative growth
C[C@H]1CN([C@@H](C)CO)C(=O)c2cccc(NS(C)(=O)=O)c2O[C@H]1CN(C)Cc1ccc(C(F)(F)F)cc1	inactive: 0.999
C[C@@H]1CCCCO[C@H](CN(C)Cc2ccc(Cl)c(Cl)c2)[C@@H](C)CN([C@@H](C)CO)C(=O)c2cc(NS(=O)(=O)c3cn(C)cn3)ccc2O1	inactive: 0.829
C=CC(C)(C)c1[nH]c2ccccc2c1C1=C(O)C(=O)C(c2c[nH]c3c(CC=C(C)C)cccc23)=C(O)C1=O	inactive: 1.04
C[C@@H]1CN([C@H](C)CO)C(=O)c2cccc(NC(=O)c3ccc(-c4nccs4)cc3)c2O[C@@H]1CN(C)C(=O)Nc1cccc2ccccc12	inactive: 1
O=C(C[C@H]1CC[C@H]2[C@@H](COC[C@H](O)CN2C(=O)c2cnccn2)O1)NCc1ccc(Oc2ccccc2)cc1	inactive: 0.985
COc1ccc(C#Cc2cnc3c(c2)C(=O)N([C@H](C)CO)C[C@H](C)[C@H](CN(C)S(=O)(=O)c2ccc(C)cc2)O3)cc1OC	inactive: 1.04
C[C@H]1CN([C@@H](C)CO)C(=O)c2cc(NS(=O)(=O)c3cn(C)cn3)ccc2O[C@@H]1CN(C)Cc1ccncc1	inactive: 1.01
O=C(CN1CCOCC1)NCC[C@@H]1CC[C@H](NC(=O)c2ccc3c(c2)OCO3)[C@@H](CO)O1	inactive: 1.02
COCC(=O)N1CC[C@]2(CC1)CN([C@H](CO)c1[nH]c3cc(ccc3c12)OC)S(=O)(=O)C	inactive: 0.984
O=C(O)C=CC=Cc1ccccc1	inactive: 0.894
NCCc1nc(-c2ccncc2)no1	inactive: 1.04
CC(C)CC#Cc1ccc2c(c1)O[C@H](CN(C)C(=O)c1ccccn1)[C@H](C)CN([C@@H](C)CO)S2(=O)=O	inactive: 0.956
CC(C)NC(=O)N(C)C[C@H]1Oc2cc(C#Cc3cccc(F)c3)ccc2S(=O)(=O)N([C@@H](C)CO)C[C@@H]1C	inactive: 0.99
Cc1ccccc1OCC(O)CO (configuration not stated)	inactive: 1.04
Cc1ccc(S(=O)(=O)Nc2ccc3c(c2)C(=O)N([C@@H](C)CO)C[C@@H](C)[C@@H](CN(C)CC2CCCCC2)OCCCC[C@@H](C)O3)cc1	inactive: 0.959
COc1cccc(CNC(=O)c2cc3c(c(-c4cccc(-c5ccncc5)c4)n2)[C@@H](CCO)N([S@](=O)C(C)(C)C)C3)c1	inactive: 1.01
COc1cccc(CN(C)C[C@H]2OCc3ccccc3-c3c(n(C)c4ccccc34)C(=O)N([C@H](C)CO)C[C@H]2C)c1	inactive: 0.995
C[C@H](CO)N1C[C@H](C)[C@@H](CN(C)S(=O)(=O)c2cn(C)cn2)Oc2ccc(NC(=O)Cc3cn(C)c4ccccc34)cc2C1=O	inactive: 1.01
C[C@@H]1CN([C@@H](C)CO)C(=O)Cc2cc(NC(=O)Cn3cnnn3)ccc2O[C@@H]1CN(C)CC1CCCCC1	inactive: 0.982
O=C(C[C@@H]1C=C[C@H](NC(=O)c2ccc(F)cc2)[C@H](CO)O1)NCc1ccncn1	inactive: 0.992
